Data as given in PMC3821653.
These are yes or no findings as the source states them, for the method shown. For some assays here: Binding seen in cells or lysates may run through a third protein. Some entries that bind do so weakly or less than the wild type. For some assays here: Tags and fused reporters may be left off the sequences shown.

Amino acid sequences for entries named in this document (tags omitted). A change or cut given only in a name is not applied to a line headed by its entry.
UniProt O43196: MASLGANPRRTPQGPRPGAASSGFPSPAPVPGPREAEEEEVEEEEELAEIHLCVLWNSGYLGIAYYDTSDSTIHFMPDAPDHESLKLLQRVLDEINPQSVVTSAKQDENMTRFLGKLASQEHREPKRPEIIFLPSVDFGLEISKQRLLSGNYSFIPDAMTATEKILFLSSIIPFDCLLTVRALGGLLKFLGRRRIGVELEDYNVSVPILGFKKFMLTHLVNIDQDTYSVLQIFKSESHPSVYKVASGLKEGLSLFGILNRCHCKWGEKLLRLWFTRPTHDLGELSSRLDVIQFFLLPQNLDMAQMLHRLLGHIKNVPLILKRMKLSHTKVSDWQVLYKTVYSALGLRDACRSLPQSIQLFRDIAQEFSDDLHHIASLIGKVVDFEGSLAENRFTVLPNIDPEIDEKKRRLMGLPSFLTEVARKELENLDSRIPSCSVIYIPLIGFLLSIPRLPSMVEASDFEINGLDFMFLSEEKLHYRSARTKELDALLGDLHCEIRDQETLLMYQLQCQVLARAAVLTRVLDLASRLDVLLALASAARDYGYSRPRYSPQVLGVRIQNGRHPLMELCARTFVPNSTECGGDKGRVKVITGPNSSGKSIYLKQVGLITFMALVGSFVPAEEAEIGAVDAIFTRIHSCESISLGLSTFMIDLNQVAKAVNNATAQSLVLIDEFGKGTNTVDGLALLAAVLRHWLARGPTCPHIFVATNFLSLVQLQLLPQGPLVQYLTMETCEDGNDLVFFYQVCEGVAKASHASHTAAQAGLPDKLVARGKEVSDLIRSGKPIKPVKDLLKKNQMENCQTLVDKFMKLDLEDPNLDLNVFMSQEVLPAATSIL
UniProt Q13227: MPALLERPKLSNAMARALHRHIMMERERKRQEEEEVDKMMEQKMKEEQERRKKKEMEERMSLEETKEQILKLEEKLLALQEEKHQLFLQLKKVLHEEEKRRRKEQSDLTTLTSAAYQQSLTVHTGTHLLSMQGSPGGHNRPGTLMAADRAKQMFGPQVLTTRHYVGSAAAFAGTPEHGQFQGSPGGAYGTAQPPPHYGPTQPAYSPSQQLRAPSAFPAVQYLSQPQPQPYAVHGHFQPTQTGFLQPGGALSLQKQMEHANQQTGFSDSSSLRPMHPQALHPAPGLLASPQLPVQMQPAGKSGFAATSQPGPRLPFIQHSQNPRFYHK
UniProt O15379: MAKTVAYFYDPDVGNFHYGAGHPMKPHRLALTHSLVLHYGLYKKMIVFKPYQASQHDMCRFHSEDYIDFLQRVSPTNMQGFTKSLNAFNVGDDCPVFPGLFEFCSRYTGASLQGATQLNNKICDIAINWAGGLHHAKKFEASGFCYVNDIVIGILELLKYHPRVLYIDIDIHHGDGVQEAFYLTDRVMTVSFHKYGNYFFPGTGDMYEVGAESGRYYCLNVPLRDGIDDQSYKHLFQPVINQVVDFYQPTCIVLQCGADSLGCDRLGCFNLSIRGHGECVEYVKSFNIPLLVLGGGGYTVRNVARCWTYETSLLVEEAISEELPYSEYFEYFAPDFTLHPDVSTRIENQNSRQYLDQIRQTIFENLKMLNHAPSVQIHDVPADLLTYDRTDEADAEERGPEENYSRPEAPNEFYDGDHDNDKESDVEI
UniProt Q92993: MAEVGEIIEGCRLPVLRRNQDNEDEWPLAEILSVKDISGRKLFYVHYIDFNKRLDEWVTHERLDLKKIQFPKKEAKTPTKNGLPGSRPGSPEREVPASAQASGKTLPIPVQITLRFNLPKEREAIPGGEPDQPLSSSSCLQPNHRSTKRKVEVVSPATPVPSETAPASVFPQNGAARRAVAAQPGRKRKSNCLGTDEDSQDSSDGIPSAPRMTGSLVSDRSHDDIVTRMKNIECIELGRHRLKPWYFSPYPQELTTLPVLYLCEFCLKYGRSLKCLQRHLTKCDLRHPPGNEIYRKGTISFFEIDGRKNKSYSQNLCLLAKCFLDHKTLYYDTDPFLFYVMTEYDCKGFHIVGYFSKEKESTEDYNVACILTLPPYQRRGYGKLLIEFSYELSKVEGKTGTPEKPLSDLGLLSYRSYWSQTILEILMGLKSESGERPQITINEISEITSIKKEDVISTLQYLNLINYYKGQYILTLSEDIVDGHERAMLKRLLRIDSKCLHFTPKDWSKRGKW

How the values were obtained:
[1] = target: hMSH4-hMSH5 heterocomplex (BD-hMSH4 with HA-hMSH5) (human) (UniProt O15457+O43196); experiment: two-hybrid; yeast three-hybrid: BD-fusion with or without a 'native' HA-tagged third protein (pBridge) and AD-fusion (pGADT7) in strain AH109; HIS3 and ADE2 reporters, growth on SD/-Ade-Leu-His-Trp
[2] = target: hMSH4-hMSH5 heterocomplex (BD-hMSH5 with HA-hMSH4) (human) (UniProt O43196+O15457); experiment: as above
GST-hMSH4 (human) = target: T1, GST-hMSH4 (human) (UniProt O15457); experiment: pull-down; GST pull-down from soluble lysates of BL21(DE3)-RIL cells co-expressing the two proteins; GST fusion captured on glutathione-Sepharose 4B beads; Western blot
T1 sequence: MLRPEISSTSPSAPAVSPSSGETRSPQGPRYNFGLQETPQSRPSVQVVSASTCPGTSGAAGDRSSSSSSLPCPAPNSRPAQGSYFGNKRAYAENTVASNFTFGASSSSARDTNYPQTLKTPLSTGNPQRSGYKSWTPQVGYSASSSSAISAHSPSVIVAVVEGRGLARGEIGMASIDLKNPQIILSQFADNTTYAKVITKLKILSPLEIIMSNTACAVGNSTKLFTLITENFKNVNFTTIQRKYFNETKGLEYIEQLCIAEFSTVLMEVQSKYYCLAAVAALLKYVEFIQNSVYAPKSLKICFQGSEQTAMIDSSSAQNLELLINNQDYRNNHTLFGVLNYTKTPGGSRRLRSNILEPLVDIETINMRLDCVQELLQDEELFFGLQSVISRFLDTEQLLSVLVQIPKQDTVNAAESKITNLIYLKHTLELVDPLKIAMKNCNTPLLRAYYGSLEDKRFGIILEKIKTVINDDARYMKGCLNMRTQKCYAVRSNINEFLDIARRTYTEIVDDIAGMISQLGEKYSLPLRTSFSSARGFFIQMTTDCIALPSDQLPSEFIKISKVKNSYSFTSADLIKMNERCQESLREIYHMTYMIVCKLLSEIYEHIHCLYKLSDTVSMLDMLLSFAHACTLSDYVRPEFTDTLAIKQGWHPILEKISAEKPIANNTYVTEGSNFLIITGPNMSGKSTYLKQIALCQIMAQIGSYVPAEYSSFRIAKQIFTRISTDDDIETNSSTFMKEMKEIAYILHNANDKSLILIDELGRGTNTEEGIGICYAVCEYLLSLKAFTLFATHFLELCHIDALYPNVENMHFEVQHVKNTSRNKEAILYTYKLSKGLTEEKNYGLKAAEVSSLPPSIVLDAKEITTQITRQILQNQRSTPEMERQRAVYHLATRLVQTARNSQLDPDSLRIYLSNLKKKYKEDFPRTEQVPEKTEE

GST-hMof (human) = target: T2, GST-hMof (human) (UniProt Q9H7Z6); experiment: as above
T2 sequence: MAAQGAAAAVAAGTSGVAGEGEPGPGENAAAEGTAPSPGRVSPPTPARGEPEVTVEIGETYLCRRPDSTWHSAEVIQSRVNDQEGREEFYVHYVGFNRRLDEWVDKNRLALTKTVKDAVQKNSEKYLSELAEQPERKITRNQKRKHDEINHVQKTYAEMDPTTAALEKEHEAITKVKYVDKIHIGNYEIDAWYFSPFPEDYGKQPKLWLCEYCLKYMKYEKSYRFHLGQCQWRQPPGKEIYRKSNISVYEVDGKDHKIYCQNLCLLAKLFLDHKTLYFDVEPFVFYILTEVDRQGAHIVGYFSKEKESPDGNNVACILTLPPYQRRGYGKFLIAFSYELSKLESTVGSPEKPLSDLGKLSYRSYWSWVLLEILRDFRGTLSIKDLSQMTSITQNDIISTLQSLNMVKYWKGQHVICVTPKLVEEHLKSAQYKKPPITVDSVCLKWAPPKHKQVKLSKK

Flag-hMof (human) [3] = target: T3, Flag-hMof (human) (UniProt Q9H7Z6); experiment: co-IP; 293T cells transfected with Myc-hMSH4 and Flag-hMof, 10 Gy IR at 48 h post transfection, extracts 6 h post IR; IP with anti-Flag antibody, Western blot for hMSH4
T3 sequence: T2 sequence

Flag-hMof (human) [4] = target: T3, Flag-hMof (human); experiment: co-IP; 293T cells transfected with Myc-hMSH4 and Flag-hMof, not irradiated; IP with anti-Flag antibody, Western blot for hMSH4

AD-GPS2 (from UniProt Q13227 1-327)
binding [1]: binds
binding [2]: binds

AD-HDAC3 (from UniProt O15379 1-428) (enzyme)
binding [1]: binds
binding [2]: no binding

Flag-tagged hTip60 (from UniProt Q92993 1-513) (enzyme)
binding (GST-hMSH4 (human)): no binding

B1: His6-hMSH4 (protein, UniProt O15457 1-936)
chain: T1 sequence
binding (GST-hMof (human)): binds

B2: Myc-hMSH4 (protein, UniProt O15457 1-936)
chain: T1 sequence
binding (Flag-hMof (human) [3]): binds
binding (Flag-hMof (human) [4]): no binding (condition: cells without IR treatment)
